In PMC5290154:
Changes are numbered by the printed parent chain. Results are given in words; binding and its absence hold for the method and conditions named. Binding seen in cells or lysates may run through a third protein. Some results given as binding are weak or reduced against the parent protein; the word gives no strength.

The chains behind the UniProt entries cited, without tags or fusion partners.
UniProt P08779: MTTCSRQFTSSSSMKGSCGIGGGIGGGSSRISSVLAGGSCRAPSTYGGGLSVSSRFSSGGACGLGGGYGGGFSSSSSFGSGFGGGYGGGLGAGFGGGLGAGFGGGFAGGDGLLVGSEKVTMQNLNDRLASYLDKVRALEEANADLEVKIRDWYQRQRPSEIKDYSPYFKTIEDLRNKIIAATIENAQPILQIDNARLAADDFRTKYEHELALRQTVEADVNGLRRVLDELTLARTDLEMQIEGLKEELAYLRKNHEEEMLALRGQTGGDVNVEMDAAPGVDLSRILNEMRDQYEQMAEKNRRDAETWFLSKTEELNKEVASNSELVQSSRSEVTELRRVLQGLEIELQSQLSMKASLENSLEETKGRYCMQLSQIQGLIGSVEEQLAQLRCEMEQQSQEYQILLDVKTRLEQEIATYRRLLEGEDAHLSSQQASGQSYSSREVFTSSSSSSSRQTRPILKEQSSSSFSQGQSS

What was measured:
[1] = target: Keratin 16 (endogenous) (human (endogenous in HaCaT, CTRL and TOC keratinocytes)) (UniProt P08779); experiment: proximity ligation; Duolink in situ kit on fixed CTRL and TOC keratinocytes, endogenous proteins, signal when within 40 nm; also after cyclic mechanical stretch (Flexcell)
[2] = target: Keratin 16 (endogenous) (human (endogenous in HaCaT, CTRL and TOC keratinocytes)) (UniProt P08779); experiment: co-IP; endogenous proteins; anti-K16 antibody on Dynabeads, 2 mg lysate of HaCaT/CTRL or TOC keratinocytes, overnight at 4 °C, NP-40 wash buffer (50 mM Tris pH 8.0, 150 mM NaCl, 1 mM EDTA, 1% NP40); blots with anti-iRHOM2 and anti-iRHOM1

B1: iRHOM2 (endogenous, control keratinocytes) (protein, UniProt Q6PJF5 1-856)
chain: MASADKNGGSVSSVSSSRLQSRKPPNLSITIPPPEKETQAPGEQDSMLPEGFQNRRLKKSQPRTWAAHTTACPPSFLPKRKNPAYLKSVSLQEPRSRWQESSEKRPGFRRQASLSQSIRKGAAQWFGVSGDWEGQRQQWQRRSLHHCSMRYGRLKASCQRDLELPSQEAPSFQGTESPKPCKMPKIVDPLARGRAFRHPEEMDRPHAPHPPLTPGVLSLTSFTSVRSGYSHLPRRKRMSVAHMSLQAAAALLKGRSVLDATGQRCRVVKRSFAFPSFLEEDVVDGADTFDSSFFSKEEMSSMPDDVFESPPLSASYFRGIPHSASPVSPDGVQIPLKEYGRAPVPGPRRGKRIASKVKHFAFDRKKRHYGLGVVGNWLNRSYRRSISSTVQRQLESFDSHRPYFTYWLTFVHVIITLLVICTYGIAPVGFAQHVTTQLVLRNKGVYESVKYIQQENFWVGPSSIDLIHLGAKFSPCIRKDGQIEQLVLRERDLERDSGCCVQNDHSGCIQTQRKDCSETLATFVKWQDDTGPPMDKSDLGQKRTSGAVCHQDPRTCEEPASSGAHIWPDDITKWPICTEQARSNHTGFLHMDCEIKGRPCCIGTKGSCEITTREYCEFMHGYFHEEATLCSQVHCLDKVCGLLPFLNPEVPDQFYRLWLSLFLHAGVVHCLVSVVFQMTILRDLEKLAGWHRIAIIFILSGITGNLASAIFLPYRAEVGPAGSQFGLLACLFVELFQSWPLLERPWKAFLNLSAIVLFLFICGLLPWIDNIAHIFGFLSGLLLAFAFLPYITFGTSDKYRKRALILVSLLAFAGLFAALVLWLYIYPINWPWIEHLTCFPFTSRFCEKYELDQVLH
For B1, the binding [1] was “binds” and the binding [2] was “binds”.

B2: iRHOM2 of TOC keratinocytes (p.Ile186Thr) (protein, UniProt Q6PJF5 1-856)
chain: B1 chain with I186T
In the case of B2, the binding [1] is reported as “binds” and the binding [2] is reported as “binds”.

B3: iRHOM1 (endogenous) (protein, UniProt Q96CC6 1-855)
chain: MSEARRDSTSSLQRKKPPWLKLDIPSAVPLTAEEPSFLQPLRRQAFLRSVSMPAETAHISSPHHELRRPVLQRQTSITQTIRRGTADWFGVSKDSDSTQKWQRKSIRHCSQRYGKLKPQVLRELDLPSQDNVSLTSTETPPPLYVGPCQLGMQKIIDPLARGRAFRVADDTAEGLSAPHTPVTPGAASLCSFSSSRSGFHRLPRRRKRESVAKMSFRAAAALMKGRSVRDGTFRRAQRRSFTPASFLEEDTTDFPDELDTSFFAREGILHEELSTYPDEVFESPSEAALKDWEKAPEQADLTGGALDRSELERSHLMLPLERGWRKQKEGAAAPQPKVRLRQEVVSTAGPRRGQRIAVPVRKLFAREKRPYGLGMVGRLTNRTYRKRIDSFVKRQIEDMDDHRPFFTYWLTFVHSLVTILAVCIYGIAPVGFSQHETVDSVLRNRGVYENVKYVQQENFWIGPSSEALIHLGAKFSPCMRQDPQVHSFIRSAREREKHSACCVRNDRSGCVQTSEEECSSTLAVWVKWPIHPSAPELAGHKRQFGSVCHQDPRVCDEPSSEDPHEWPEDITKWPICTKNSAGNHTNHPHMDCVITGRPCCIGTKGRCEITSREYCDFMRGYFHEEATLCSQVHCMDDVCGLLPFLNPEVPDQFYRLWLSLFLHAGILHCLVSICFQMTVLRDLEKLAGWHRIAIIYLLSGVTGNLASAIFLPYRAEVGPAGSQFGILACLFVELFQSWQILARPWRAFFKLLAVVLFLFTFGLLPWIDNFAHISGFISGLFLSFAFLPYISFGKFDLYRKRCQIIIFQVVFLGLLAGLVVLFYVYPVRCEWCEFLTCIPFTDKFCEKYELDAQLH
In the case of B3, the binding [2] is reported as “no binding”.
